Test results from patent publication US6855515.

Tests used:
[1] = test system: 18 different human non-autoantigens
[2] = target: Alanyl tRNA synthetase (PL-12) (UniProt P49588)
CENP B = target: T1, CENP B (UniProt P07199)
T1 sequence: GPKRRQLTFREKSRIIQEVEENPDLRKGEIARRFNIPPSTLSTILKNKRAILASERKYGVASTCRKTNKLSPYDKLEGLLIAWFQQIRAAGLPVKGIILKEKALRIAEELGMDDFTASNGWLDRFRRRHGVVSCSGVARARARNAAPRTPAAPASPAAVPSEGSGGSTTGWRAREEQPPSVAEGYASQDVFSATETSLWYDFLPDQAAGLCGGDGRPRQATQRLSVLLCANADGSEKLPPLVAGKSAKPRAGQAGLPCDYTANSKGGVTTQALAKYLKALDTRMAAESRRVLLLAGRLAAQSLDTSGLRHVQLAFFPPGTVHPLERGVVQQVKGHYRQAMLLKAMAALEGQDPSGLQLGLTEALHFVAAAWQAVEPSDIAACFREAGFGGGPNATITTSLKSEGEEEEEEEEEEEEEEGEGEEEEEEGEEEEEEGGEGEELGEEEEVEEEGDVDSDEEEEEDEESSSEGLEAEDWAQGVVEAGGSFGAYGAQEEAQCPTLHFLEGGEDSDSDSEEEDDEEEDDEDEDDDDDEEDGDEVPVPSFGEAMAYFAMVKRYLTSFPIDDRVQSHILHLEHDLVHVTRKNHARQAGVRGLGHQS

[3] = target: T2, Histidyl tRNA synthetase (Jo-1) (UniProt P12081)
T2 sequence: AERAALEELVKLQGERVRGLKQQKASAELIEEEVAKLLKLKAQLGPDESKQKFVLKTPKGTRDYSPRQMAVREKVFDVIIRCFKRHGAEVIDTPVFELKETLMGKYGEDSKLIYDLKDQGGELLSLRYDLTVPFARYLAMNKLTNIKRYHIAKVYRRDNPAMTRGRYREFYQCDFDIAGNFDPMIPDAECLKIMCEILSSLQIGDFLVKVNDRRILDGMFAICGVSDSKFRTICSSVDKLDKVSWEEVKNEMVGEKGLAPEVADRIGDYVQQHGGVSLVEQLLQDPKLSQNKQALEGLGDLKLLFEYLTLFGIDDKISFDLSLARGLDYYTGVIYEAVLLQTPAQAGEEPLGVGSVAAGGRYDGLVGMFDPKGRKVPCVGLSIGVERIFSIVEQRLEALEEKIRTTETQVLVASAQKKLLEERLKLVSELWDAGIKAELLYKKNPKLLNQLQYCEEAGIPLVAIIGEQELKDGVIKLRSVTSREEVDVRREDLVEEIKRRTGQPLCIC

[4] = target: T3, Isoleucyl tRNA synthetase (O.J.) (UniProt P41252)
T3 sequence: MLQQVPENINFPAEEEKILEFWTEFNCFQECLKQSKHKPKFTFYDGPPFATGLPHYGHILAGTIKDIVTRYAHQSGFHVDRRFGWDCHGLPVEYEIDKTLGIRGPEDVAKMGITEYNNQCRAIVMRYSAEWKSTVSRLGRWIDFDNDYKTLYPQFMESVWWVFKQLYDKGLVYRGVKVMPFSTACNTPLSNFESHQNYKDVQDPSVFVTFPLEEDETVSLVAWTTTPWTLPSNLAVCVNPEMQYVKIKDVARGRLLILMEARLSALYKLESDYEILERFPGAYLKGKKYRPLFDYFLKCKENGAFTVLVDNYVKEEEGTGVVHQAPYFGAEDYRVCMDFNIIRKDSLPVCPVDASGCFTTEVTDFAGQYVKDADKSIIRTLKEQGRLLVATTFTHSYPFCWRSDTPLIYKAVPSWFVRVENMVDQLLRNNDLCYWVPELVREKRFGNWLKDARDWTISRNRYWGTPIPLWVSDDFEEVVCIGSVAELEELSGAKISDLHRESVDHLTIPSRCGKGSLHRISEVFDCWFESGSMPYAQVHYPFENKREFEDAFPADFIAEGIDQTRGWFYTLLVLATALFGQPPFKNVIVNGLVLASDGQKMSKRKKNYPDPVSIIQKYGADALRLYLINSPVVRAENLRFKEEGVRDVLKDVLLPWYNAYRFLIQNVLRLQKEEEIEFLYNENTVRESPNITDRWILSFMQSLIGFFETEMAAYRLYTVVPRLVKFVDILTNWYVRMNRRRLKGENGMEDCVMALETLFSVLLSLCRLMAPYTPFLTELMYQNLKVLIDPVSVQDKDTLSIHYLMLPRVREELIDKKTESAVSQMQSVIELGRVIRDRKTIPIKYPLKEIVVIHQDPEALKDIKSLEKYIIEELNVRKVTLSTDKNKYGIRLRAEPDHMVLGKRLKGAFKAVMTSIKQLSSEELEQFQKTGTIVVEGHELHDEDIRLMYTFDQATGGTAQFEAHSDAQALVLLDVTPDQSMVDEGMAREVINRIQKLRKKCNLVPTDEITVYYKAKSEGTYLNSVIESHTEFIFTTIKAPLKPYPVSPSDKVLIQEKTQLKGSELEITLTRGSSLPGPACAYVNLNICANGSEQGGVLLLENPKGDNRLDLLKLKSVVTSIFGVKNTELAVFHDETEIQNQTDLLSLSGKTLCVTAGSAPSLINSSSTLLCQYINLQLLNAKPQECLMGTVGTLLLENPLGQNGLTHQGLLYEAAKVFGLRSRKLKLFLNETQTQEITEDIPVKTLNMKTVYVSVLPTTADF

Ki-67 = Ki-67 (UniProt P46013)
La = target: T4, La (UniProt P05455)
T4 sequence: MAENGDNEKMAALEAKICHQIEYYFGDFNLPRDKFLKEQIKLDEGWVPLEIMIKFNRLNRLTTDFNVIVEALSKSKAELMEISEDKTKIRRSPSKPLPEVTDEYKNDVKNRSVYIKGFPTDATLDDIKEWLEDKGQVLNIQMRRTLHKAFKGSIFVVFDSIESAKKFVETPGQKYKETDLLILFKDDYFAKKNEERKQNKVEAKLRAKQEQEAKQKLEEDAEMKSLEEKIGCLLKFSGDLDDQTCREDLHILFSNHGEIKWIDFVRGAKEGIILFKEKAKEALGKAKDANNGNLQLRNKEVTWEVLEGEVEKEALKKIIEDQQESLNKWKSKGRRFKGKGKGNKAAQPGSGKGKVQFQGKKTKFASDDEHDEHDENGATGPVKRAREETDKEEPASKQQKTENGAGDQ

PMS1 = target: T5, PMS1 (UniProt P54277)
T5 sequence: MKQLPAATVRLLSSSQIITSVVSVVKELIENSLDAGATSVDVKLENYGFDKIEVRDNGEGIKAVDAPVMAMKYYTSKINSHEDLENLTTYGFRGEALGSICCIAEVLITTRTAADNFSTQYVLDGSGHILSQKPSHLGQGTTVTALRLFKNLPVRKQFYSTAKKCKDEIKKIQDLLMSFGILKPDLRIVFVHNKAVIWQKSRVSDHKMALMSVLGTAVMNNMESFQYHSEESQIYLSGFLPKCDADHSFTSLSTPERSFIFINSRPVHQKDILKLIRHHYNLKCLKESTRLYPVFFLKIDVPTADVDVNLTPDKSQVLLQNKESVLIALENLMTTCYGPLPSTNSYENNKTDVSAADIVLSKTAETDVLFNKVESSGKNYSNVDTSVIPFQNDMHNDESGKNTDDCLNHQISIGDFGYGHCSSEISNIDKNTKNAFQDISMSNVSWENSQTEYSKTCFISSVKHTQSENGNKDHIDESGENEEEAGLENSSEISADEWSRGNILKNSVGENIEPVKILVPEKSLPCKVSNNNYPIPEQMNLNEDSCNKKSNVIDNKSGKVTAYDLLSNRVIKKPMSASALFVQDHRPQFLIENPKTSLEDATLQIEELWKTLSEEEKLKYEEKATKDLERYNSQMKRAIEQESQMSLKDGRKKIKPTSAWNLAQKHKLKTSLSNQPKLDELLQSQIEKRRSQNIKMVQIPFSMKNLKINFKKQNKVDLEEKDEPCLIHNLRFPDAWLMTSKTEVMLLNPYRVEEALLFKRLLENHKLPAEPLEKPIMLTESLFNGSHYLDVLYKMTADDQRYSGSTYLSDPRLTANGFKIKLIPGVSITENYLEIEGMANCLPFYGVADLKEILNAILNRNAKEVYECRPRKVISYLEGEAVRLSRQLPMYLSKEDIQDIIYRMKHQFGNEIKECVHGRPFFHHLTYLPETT

PMS2 = target: T6, PMS2 (UniProt P54278)
T6 sequence: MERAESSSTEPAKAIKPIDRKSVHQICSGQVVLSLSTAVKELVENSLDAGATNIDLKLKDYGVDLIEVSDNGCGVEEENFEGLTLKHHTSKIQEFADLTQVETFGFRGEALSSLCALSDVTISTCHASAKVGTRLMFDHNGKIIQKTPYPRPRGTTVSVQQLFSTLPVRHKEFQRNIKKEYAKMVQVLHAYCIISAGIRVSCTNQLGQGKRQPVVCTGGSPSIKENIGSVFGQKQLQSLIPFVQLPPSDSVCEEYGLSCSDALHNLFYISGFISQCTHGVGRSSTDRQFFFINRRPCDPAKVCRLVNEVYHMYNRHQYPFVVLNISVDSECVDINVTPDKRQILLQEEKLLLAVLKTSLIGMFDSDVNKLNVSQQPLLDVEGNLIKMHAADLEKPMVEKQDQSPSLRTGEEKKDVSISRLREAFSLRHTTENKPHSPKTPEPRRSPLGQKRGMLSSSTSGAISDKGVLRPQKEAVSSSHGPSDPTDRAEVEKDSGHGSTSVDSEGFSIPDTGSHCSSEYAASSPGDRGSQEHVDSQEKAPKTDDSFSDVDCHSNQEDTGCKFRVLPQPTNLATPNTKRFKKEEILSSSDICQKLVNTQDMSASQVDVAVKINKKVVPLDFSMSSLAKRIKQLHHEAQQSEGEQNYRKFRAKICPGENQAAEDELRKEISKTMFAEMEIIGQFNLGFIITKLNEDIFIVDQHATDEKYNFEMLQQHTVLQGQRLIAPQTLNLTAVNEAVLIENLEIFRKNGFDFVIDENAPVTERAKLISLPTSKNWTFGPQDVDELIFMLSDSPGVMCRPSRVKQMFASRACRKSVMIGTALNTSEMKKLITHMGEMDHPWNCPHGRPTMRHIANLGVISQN

[5] = target: RNA polymerase I large subunit (UniProt O95602)
UniProt O95602, sequence (O95602 whole entry, looked up, tested part not stated): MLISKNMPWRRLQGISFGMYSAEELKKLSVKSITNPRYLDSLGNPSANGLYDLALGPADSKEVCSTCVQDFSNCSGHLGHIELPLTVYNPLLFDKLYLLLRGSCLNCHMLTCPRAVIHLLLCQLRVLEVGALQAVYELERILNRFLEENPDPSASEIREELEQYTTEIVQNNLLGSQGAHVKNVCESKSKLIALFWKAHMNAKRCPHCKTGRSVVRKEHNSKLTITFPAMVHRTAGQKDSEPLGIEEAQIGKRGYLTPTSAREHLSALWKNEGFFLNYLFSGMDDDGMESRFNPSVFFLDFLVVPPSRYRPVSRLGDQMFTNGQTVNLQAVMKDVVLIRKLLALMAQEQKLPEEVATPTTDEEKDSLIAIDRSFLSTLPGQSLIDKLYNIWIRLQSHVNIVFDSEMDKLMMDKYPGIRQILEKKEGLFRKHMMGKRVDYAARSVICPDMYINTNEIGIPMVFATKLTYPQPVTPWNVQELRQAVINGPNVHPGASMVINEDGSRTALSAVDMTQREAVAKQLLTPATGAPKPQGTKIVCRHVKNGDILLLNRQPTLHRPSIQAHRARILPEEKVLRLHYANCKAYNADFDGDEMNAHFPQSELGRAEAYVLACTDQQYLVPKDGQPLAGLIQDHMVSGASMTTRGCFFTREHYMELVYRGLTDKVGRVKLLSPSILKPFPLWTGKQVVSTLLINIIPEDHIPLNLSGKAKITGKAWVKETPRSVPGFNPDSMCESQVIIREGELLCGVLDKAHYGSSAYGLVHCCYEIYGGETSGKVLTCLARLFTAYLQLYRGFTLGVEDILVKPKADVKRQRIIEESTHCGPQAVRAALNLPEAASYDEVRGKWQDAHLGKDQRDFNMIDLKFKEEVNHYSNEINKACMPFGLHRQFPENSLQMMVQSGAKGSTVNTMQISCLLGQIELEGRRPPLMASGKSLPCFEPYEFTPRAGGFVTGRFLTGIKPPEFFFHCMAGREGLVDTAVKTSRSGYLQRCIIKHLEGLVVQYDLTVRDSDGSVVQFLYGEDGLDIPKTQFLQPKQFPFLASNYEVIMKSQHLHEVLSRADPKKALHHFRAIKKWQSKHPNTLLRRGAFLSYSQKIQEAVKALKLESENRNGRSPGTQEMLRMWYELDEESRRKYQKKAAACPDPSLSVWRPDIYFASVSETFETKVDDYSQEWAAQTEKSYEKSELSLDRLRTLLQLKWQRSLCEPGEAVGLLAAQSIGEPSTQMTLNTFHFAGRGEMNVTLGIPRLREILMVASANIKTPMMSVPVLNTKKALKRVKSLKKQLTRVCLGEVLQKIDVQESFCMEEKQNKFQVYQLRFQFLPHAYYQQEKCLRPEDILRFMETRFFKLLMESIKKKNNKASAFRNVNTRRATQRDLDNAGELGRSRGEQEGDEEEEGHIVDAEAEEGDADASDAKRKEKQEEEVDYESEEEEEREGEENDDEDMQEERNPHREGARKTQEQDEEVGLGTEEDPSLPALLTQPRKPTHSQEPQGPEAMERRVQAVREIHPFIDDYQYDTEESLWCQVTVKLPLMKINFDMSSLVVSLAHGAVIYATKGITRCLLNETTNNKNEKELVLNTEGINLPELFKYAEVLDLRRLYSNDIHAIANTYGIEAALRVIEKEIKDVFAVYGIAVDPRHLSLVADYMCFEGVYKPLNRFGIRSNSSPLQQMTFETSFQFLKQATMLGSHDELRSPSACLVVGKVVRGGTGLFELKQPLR

Topoisomerase I = Topoisomerase I (UniProt P11387)
UniProt P11387, sequence (P11387 whole entry): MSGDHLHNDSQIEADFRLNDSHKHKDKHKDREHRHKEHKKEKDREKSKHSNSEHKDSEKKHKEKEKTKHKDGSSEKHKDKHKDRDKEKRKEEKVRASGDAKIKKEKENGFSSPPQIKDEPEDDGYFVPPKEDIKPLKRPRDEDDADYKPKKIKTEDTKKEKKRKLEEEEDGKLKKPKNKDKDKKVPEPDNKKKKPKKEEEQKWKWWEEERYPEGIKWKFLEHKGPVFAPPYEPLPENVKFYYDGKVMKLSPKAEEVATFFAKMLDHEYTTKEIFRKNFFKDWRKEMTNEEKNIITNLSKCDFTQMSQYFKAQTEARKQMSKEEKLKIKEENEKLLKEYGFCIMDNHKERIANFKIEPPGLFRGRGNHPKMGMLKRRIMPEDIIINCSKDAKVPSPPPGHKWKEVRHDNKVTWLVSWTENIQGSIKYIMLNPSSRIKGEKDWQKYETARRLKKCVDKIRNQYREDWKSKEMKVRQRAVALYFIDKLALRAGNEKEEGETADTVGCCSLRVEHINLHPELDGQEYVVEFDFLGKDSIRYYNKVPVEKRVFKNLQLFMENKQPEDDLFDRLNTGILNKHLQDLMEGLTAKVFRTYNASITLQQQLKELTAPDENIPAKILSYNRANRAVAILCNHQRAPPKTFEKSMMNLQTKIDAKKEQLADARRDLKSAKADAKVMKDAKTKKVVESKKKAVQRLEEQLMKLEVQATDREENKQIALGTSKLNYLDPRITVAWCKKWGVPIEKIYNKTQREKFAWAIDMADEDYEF

caspase-3 precursor = target: T7, caspase-3 precursor (UniProt P42574)
T7 sequence: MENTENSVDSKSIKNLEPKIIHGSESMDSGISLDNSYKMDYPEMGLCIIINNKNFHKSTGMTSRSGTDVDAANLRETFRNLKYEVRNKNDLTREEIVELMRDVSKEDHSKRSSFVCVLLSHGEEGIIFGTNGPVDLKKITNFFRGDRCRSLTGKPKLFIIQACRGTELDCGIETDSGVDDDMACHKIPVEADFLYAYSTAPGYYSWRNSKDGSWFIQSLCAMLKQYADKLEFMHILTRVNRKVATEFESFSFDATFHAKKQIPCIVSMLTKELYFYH

caspase-7 precursor = target: T8, caspase-7 precursor (UniProt P55210)
T8 sequence: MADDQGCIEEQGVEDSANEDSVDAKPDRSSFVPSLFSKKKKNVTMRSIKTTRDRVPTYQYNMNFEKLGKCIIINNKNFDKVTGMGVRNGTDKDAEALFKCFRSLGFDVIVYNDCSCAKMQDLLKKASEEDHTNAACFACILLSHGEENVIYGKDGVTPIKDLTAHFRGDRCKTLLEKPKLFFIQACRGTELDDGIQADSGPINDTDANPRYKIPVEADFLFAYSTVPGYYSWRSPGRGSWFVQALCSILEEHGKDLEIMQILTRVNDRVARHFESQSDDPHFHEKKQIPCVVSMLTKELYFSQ

fibrillarin = target: T9, fibrillarin (UniProt P22087)
T9 sequence: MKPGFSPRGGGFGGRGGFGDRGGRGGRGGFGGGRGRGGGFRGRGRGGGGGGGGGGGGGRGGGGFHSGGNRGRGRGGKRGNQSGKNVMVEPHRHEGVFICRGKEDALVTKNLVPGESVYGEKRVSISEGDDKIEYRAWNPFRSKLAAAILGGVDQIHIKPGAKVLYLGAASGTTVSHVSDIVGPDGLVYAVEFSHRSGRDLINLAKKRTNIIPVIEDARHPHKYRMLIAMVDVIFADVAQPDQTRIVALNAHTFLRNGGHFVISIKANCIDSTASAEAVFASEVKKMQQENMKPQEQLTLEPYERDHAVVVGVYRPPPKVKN

[6] = test system: nuclear mitotic apparatus protein
nuclear mitotic apparatus protein, sequence (chain, as listed by the source): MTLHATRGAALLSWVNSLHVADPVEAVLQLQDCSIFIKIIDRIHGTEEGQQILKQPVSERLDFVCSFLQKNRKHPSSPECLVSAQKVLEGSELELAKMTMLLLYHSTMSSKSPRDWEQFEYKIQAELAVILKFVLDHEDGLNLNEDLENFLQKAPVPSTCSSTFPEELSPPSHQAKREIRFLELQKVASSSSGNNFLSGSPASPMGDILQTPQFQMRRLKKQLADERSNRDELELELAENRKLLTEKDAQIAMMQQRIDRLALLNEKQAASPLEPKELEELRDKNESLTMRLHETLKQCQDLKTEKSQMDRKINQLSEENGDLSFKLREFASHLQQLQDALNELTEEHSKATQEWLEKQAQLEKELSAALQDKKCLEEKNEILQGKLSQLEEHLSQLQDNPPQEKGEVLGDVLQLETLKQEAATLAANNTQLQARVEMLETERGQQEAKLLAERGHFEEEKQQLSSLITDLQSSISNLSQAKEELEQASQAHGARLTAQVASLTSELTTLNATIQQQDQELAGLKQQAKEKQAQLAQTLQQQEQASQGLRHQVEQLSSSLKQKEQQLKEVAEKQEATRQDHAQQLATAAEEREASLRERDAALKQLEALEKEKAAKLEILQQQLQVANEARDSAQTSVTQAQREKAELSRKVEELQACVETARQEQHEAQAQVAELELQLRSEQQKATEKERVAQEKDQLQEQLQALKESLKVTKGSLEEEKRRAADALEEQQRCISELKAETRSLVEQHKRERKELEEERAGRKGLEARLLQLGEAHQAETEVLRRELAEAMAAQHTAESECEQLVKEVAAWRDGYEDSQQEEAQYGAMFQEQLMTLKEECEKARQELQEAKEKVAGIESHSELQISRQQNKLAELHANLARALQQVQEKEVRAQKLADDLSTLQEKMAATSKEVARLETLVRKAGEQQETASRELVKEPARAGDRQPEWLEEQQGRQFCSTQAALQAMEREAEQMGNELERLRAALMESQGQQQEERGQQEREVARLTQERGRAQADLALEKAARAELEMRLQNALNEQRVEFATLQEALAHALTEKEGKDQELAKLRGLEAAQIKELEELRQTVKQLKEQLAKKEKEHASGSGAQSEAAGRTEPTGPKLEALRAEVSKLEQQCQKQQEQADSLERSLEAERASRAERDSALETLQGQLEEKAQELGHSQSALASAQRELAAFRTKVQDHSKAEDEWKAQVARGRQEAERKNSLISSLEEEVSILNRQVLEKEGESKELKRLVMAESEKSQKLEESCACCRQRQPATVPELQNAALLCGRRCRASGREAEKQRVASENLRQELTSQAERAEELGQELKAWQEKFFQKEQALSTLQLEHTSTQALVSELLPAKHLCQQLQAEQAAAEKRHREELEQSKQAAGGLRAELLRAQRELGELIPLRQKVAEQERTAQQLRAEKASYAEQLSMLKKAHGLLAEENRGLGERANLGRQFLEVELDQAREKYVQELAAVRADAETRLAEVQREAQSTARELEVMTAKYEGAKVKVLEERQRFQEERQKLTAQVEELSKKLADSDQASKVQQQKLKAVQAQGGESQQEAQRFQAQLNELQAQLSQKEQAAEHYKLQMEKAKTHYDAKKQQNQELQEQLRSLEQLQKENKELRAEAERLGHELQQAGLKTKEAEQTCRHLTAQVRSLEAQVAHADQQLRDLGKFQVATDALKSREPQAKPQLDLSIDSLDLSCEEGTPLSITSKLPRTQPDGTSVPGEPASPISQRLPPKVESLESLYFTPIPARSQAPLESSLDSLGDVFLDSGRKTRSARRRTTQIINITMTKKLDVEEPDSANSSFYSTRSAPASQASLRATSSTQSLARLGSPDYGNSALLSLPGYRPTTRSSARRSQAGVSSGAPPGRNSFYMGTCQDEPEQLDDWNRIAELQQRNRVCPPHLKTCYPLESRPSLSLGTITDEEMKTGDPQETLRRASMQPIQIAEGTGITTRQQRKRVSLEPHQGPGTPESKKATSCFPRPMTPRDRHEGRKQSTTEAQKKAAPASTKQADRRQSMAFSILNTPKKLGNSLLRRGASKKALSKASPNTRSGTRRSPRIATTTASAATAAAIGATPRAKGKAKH

[7] = test system: poly(ADP-ribose) polymerase

For granzyme B (sequence left out), the cleavage [1] was “None of 18 different human non-autoantigens tested was cleaved by granzyme B”, the kcat/Km [2] was 18000 M⁻¹ s⁻¹ and the kcat/Km (CENP B) was 5900 M⁻¹ s⁻¹. It also gave a kcat/Km [3] of 23000 M⁻¹ s⁻¹, a kcat/Km [4] of 78000 M⁻¹ s⁻¹ and a kcat/Km (Ki-67) of 8100 M⁻¹ s⁻¹. For the same substance, the kcat/Km (La) was 61000 M⁻¹ s⁻¹, the kcat/Km (Mi-2) was 85000 M⁻¹ s⁻¹ and the kcat/Km (PMS1) was 69000 M⁻¹ s⁻¹. For the same substance, the kcat/Km (PMS2) was 14000 M⁻¹ s⁻¹, the kcat/Km (PmScl) was 7500 M⁻¹ s⁻¹ and the kcat/Km [5] was 13000 M⁻¹ s⁻¹. The kcat/Km (Topoisomerase I) was 1.6e+06 M⁻¹ s⁻¹, the kcat/Km (caspase-3 precursor) was 36000 M⁻¹ s⁻¹ and 23000 M⁻¹ s⁻¹ and the kcat/Km (caspase-7 precursor) was 180000 M⁻¹ s⁻¹. It also gave a kcat/Km (fibrillarin) of 33000 M⁻¹ s⁻¹, a kcat/Km [6] of 540000 M⁻¹ s⁻¹ and a kcat/Km [7] of 23000 M⁻¹ s⁻¹.

Several values for one entry are separate records, joined by “and”; a condition that tells them apart may be missing. Identical values can stand only once.
